Results taken from patent publication US11685745B2, “Substituted benzoxazole and benzofuran compounds as PDE7 inhibitors” (Dart NeuroScience, LLC, priority 2017, dated 2023).

molecular target: N-terminal truncated recombinant human PDE7B enzyme (Homo sapiens (Human), UniProt Q9NP56); experiment: biochemical

SMILES | IC50
O=C1Nc2c(Cl)cc3cc(C(=O)NCCN4CCCC4=O)oc3c2C2(CCCCC2)N1 [Example 320, 5′-Chloro-7′-oxo-N-[2-(2-oxopyrrolidin-1-yl)ethyl]-7′,8′-dihydro-6′H-spiro[cyclohexane-1,9′-furo[2,3-f]quinazoline]-2′-carboxamide] | 10 to 100 nM
O=C1Nc2c(Cl)cc3cc(C(=O)NCc4ccc(C(F)(F)F)cn4)oc3c2C2(CCCCC2)N1 [Example 367, 5′-Chloro-7′-oxo-N-{[5-(trifluoromethyl)pyridin-2-yl]methyl}-7′,8′-dihydro-6′H-spiro[cyclohexane-1,9′-furo[2,3-f]quinazoline]-2′-carboxamide] | 10 to 100 nM
CC(=O)N1CCCN(Cc2cc3cc(Cl)c4c(c3o2)C2(CCCCC2)NC(=O)N4)CC1 [Example 486, 2′-[(4-Acetyl-1,4-diazepan-1-yl)methyl]-5′-chloro-7′,8′-dihydro-6′H-spiro[cyclohexane-1,9′-furo[2,3-f]quinazoline]-7′-one] | 10 to 100 nM
O=C1Nc2c(Cl)cc3nc(CNCc4ncco4)oc3c2C2(CCCCC2)N1 [Example 170, 5-Chloro-2-{[(1,3-oxazol-2-ylmethyl)amino]methyl}-7,8-dihydro-6H-spiro[[1,3]oxazolo[5,4-f]quinazoline-9,1′-cyclohexane]-7-one] | 10 to 100 nM
O=C1Nc2c(Cl)cc3cc(C(=O)NCc4ccccc4F)oc3c2C2(CCCCC2)N1 [Example 254, 5′-Chloro-N-[(2-fluorophenyl)methyl]-7′-oxo-7′,8′-dihydro-6′H-spiro[cyclohexane-1,9′-furo[2,3-f]quinazoline]-2′-carboxamide] | 100 to 1000 nM
O=C1Nc2c(Cl)cc3cc(CN4CCCCC4CCO)oc3c2C2(CCCCC2)N1 (centres unmarked) [Example 468, 5′-Chloro-2′-{[2-(2-hydroxyethyl)piperidin-1-yl]methyl}-7′,8′-dihydro-6′H-spiro[cyclohexane-1,9′-furo[2,3-f]quinazoline]-7′-one] | 100 to 1000 nM
CN(C)CCN(C)Cc1nc2cc(Cl)c3c(c2o1)C1(CCCCC1)NC(=O)N3 [Example 122, 5-Chloro-2-({[2-(dimethylamino)ethyl](methyl)amino}methyl)-7,8-dihydro-6H-spiro[[1,3]oxazolo[5,4-f]quinazoline-9,1′-cyclohexane]-7-one] | 100 to 1000 nM
O=C1Nc2c(Cl)cc3nc(CNCCc4ccon4)oc3c2C2(CCCCC2)N1 [Example 172, 5-Chloro-2-({[2-(1,2-oxazol-3-yl)ethyl]amino}methyl)-7,8-dihydro-6H-spiro[[1,3]oxazolo[5,4-f]quinazoline-9,1′-cyclohexane]-7-one] | 10 to 100 nM
O=C1Nc2c(Cl)cc3nc(CNC[C@H]4CCOC4)oc3c2C2(CCC(F)(F)CC2)N1 [Example 227, 5-Chloro-4′,4′-difluoro-2-({[(3R)-oxolan-3-ylmethyl]amino}methyl)-7,8-dihydro-6H-spiro[[1,3]oxazolo[5,4-f]quinazoline-9,1′-cyclohexane]-7-one] | 100 to 1000 nM
O=C1Nc2c(F)cc3nc(CN4CCC(F)(F)CC4)oc3c2C2(CCCCC2)N1 [Example 222, 2-[(4,4-Difluoropiperidin-1-yl)methyl]-5-fluoro-7,8-dihydro-6H-spiro[[1,3]oxazolo[5,4-f]quinazoline-9,1′-cyclohexane]-7-one] | 100 to 1000 nM
COCCNCc1nc2cc(Cl)c3c(c2o1)C1(CCCCC1)NC(=O)N3 [Example 4, 5′-Chloro-2′-(((2-methoxyethyl)amino)methyl)-6′H-spiro[cyclohexane-1,9′-oxazolo[5,4-f]quinazolin]-7′(8′H)-one] | 10 to 100 nM
O=C1Nc2c(Cl)cc3cc(C(=O)N4CCC[C@@H]4C(=O)O)oc3c2C2(CCCCC2)N1 [Example 398, (2R)-1-({5′-Chloro-7′-oxo-7′,8′-dihydro-6′H-spiro[cyclohexane-1,9′-furo[2,3-f]quinazoline]-2′-yl}carbonyl)pyrrolidine-2-carboxylic acid] | 100 to 1000 nM
CC(C)(C)OC(=O)N1CCCCC1CNCc1nc2cc(Cl)c3c(c2o1)C1(CCCCC1)NC(=O)N3 (centres unmarked) [Example 52, Tert-Butyl 2-[({5-chloro-7-oxo-7,8-dihydro-6H-spiro[[1,3]oxazolo[5,4-f]quinazoline-9,1′-cyclohexane]-2-ylmethyl}amino)methyl]piperidine-1-carboxylate] | 10 to 100 nM
O=C1Nc2c(Cl)cc3nc(CN4CC(F)C4)oc3c2C2(CCCCC2)N1 [Example 73, 5-Chloro-2-[(3-fluoroazetidin-1-yl)methyl]-7,8-dihydro-6H-spiro[[1,3]oxazolo[5,4-f]quinazoline-9,1′-cyclohexane]-7-one] | 10 to 100 nM
CN(Cc1cccnc1)C(=O)c1cc2cc(Cl)c3c(c2o1)C1(CCCCC1)NC(=O)N3 [Example 425, 5′-Chloro-N-methyl-7′-oxo-N-(pyridin-3-ylmethyl)-7′,8′-dihydro-6′H-spiro[cyclohexane-1,9′-furo[2,3-f]quinazoline]-2′-carboxamide] | 10 to 100 nM
O=C1Nc2c(Cl)cc3cc(C(=O)N(CCCO)Cc4ccccc4)oc3c2C2(CCCCC2)N1 [Example 461, N-Benzyl-5′-chloro-N-(3-hydroxypropyl)-7′-oxo-7′,8′-dihydro-6′H-spiro[cyclohexane-1,9′-furo[2,3-f]quinazoline]-2′-carboxamide] | 10 to 100 nM

SMILES | IC50
CC(C)N1CCN(Cc2cc3cc(Cl)c4c(c3o2)C2(CCCCC2)NC(=O)N4)CC1=O [Example 536, 5′-Chloro-2′-{[3-oxo-4-(propan-2-yl)piperazin-1-yl]methyl}-7′,8′-dihydro-6′H-spiro[cyclohexane-1,9′-furo[2,3-f]quinazoline]-7′-one] | 100 to 1000 nM
O=C1Nc2c(Cl)cc3cc(C(=O)N4CCOCC4)oc3c2C2(CCCCC2)N1 [Example 237, 5′-Chloro-2′-(morpholine-4-carbonyl)-7′,8′-dihydro-6′H-spiro[cyclohexane-1,9′-furo[2,3-f]quinazoline]-7′-one] | 10 to 100 nM
CO[C@@H]1CCN(Cc2nc3cc(Cl)c4c(c3o2)C2(CCCCC2)NC(=O)N4)C1 [Example 134, 5-Chloro-2-{[(3R)-3-methoxypyrrolidin-1-yl]methyl}-7,8-dihydro-6H-spiro[[1,3]oxazolo[5,4-f]quinazoline-9,1′-cyclohexane]-7-one] | 10 to 100 nM
CCCN(C)Cc1cc2cc(Cl)c3c(c2o1)C1(CCCCC1)NC(=O)N3 [Example 550, 5′-Chloro-2′-{[methyl(propyl)amino]methyl}-7′,8′-dihydro-6′H-spiro[cyclohexane-1,9′-furo[2,3-f]quinazoline]-7′-one] | 100 to 1000 nM
C[C@@]12CCN(C(=O)c3cc4cc(Cl)c5c(c4o3)C3(CCCCC3)NC(=O)N5)C[C@@H]1C2(F)F [Example 399, 5′-Chloro-2′-[(1R,6R)-7,7-difluoro-6-methyl-3-azabicyclo[4.1.0]heptane-3-carbonyl]-7′,8′-dihydro-6′H-spiro[cyclohexane-1,9′-furo[2,3-f]quinazoline]-7′-one] | 10 to 100 nM
O=C1Nc2c(Cl)cc3nc(CN4CCN(CC(F)(F)F)CC4)oc3c2C2(CCCCC2)N1 [Example 126, 5-Chloro-2-{[4-(2,2,2-trifluoroethyl)piperazin-1-yl]methyl}-7,8-dihydro-6H-spiro[[1,3]oxazolo[5,4-f]quinazoline-9,1′-cyclohexane]-7-one] | 100 to 1000 nM
CO[C@H]1CCN(C(=O)c2nc3cc(Cl)c4c(c3o2)C2(CCCCC2)NC(=O)N4)C1 [Example 202, 5-Chloro-2-[(3S)-3-methoxypyrrolidine-1-carbonyl]-7,8-dihydro-6H-spiro[[1,3]oxazolo[5,4-f]quinazoline-9,1′-cyclohexane]-7-one] | 10 to 100 nM
CN1CCC(NC(=O)c2cc3cc(Cl)c4c(c3o2)C2(CCCCC2)NC(=O)N4)CC1 [Example 253, 5′-Chloro-N-(1-methylpiperidin-4-yl)-7′-oxo-7′,8′-dihydro-6′H-spiro[cyclohexane-1,9′-furo[2,3-f]quinazoline]-2′-carboxamide] | 100 to 1000 nM
O=C1Nc2c(Cl)cc3cc(C(=O)NCc4ccc5c(c4)OCCO5)oc3c2C2(CCCCC2)N1 [Example 298, 5′-Chloro-N-(2,3-dihydro-1,4-benzodioxin-6-ylmethyl)-7′-oxo-7′,8′-dihydro-6′H-spiro[cyclohexane-1,9′-furo[2,3-f]quinazoline]-2′-carboxamide] | 100 to 1000 nM
CC1(C)CN(Cc2cc3cc(Cl)c4c(c3o2)C2(CCCCC2)NC(=O)N4)CCO1 [Example 552, 5′-Chloro-2′-[(2,2-dimethylmorpholin-4-yl)methyl]-7′,8′-dihydro-6′H-spiro[cyclohexane-1,9′-furo[2,3-f]quinazoline]-7′-one] | 10 to 100 nM
O=C1Nc2c(Cl)cc3nc(CNC4C5COCC54)oc3c2C2(CCCCC2)N1 (centres unmarked) [Example 146, 5-Chloro-2-[({3-oxabicyclo[3.1.0]hexan-6-yl}amino)methyl]-7,8-dihydro-6H-spiro[[1,3]oxazolo[5,4-f]quinazoline-9,1′-cyclohexane]-7-one] | 10 to 100 nM
CCc1cc(CN(C)Cc2cc3cc(Cl)c4c(c3o2)C2(CCCCC2)NC(=O)N4)on1 [Example 554, 5′-Chloro-2′-({[(3-ethyl-1,2-oxazol-5-yl)methyl](methyl)amino}methyl)-7′,8′-dihydro-6′H-spiro[cyclohexane-1,9′-furo[2,3-f]quinazoline]-7′-one] | 100 to 1000 nM
O=C1Nc2c(Cl)cc3nc(COC4CCOCC4)oc3c2C2(CCCCC2)N1 [Example 177, 5-Chloro-2-[(oxan-4-yloxy)methyl]-7,8-dihydro-6H-spiro[[1,3]oxazolo[5,4-f]quinazoline-9,1′-cyclohexane]-7-one] | 10 to 100 nM
COC1CCN(Cc2nc3cc(Cl)c4c(c3o2)C2(CCCCC2)NC(=O)N4)C1 (centres unmarked) [Example 125, 5-Chloro-2-[(3-methoxypyrrolidin-1-yl)methyl]-7,8-dihydro-6H-spiro[[1,3]oxazolo[5,4-f]quinazoline-9,1′-cyclohexane]-7-one] | 10 to 100 nM
CN(C)CCNC(=O)c1nc2cc(Cl)c3c(c2o1)C1(CCCCC1)NC(=O)N3 [Example 179, 5-Chloro-N-[2-(dimethylamino)ethyl]-7-oxo-7,8-dihydro-6H-spiro[[1,3]oxazolo[5,4-f]quinazoline-9,1′-cyclohexane]-2-carboxamide] | 100 to 1000 nM
CC(C)NCc1nc2cc(Cl)c3c(c2o1)C1(CCCCC1)NC(=O)N3 [Example 39, 5-Chloro-2-{[(propan-2-yl)amino]methyl}-7,8-dihydro-6H-spiro[[1,3]oxazolo[5,4-f]quinazoline-9,1′-cyclohexane]-7-one] | 10 to 100 nM
